Results published in the supplement of paper PMC4967469.
By IC50 is meant the dose at which the fit gives 50% viability; a fit beyond the top or the lowest dose is shown as a bound at that dose. AUC is the area under the same curve over the 256-fold range up to the top dose, as a fraction; the more sensitive the line, the further below 1. Where the top dose is marked as inferred, it comes from the curve model; the source does not state it.

Compound: N.N.[Cl][Pt][Cl] [Cisplatin]
Assay: Viability of human cancer cell lines after 72 h of drug (GDSC screen)
Conditions: top dose inferred
Protocol: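 Human cancer cell lines in 384-well plates, medium with 10% serum, drug for 72 h over a 256-fold dose range (nine 2-fold or five 4-fold steps up to the top dose). Adherent lines were fixed and stained with the nucleic acid dye Syto60, suspension lines read with resazurin; signal relative to control wells, capped at 0 and 100%. One two-parameter sigmoid per drug and line, fitted in a mixed model over all curves with the slope shared within a line.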

| Cell Line | AUC | IC50 [µM] |
| --- | --- | --- |
| SHP-77 (small cell lung carcinoma, semi-adherent, top dose 10 µM) | 0.991 | > 10 |
| SIMA (neuroblastoma, adherent, top dose 10 µM) | 0.876 | > 10 |
| SISO (cervix, adherent, top dose 10 µM) | 0.644 | 1.53 |
| SJRH30 (rhabdomyosarcoma, adherent, top dose 10 µM) | 0.891 | > 10 |
| SJSA-1 (bone, adherent, top dose 10 µM) | 0.901 | > 10 |
| SK-ES-1 (Ewing sarcoma, semi-adherent, top dose 10 µM) | 0.76 | 3.73 |
| SK-GT-2 (stomach, adherent, top dose 10 µM) | 0.859 | 8.97 |
| SK-GT-4 (oesophagus, adherent, top dose 10 µM) | 0.901 | > 10 |
| SK-HEP-1 (liver, adherent, top dose 10 µM) | 0.926 | > 10 |
| SK-LMS-1 (soft tissue, adherent, top dose 10 µM) | 0.834 | 6.07 |
| SK-MEL-1 (melanoma, suspension, top dose 10 µM) | 0.989 | > 10 |
| SK-MEL-2 (melanoma, adherent, top dose 10 µM) | 0.863 | 9.23 |
| SK-MEL-3 (melanoma, adherent, top dose 10 µM) | 0.98 | > 10 |
| SK-MEL-5 (melanoma, adherent, top dose 10 µM) | 0.845 | 9.73 |
| SK-MEL-24 (melanoma, adherent, top dose 10 µM) | 0.879 | > 10 |
| SK-MEL-30 (melanoma, adherent, top dose 10 µM) | 0.778 | 4.26 |
| SK-MEL-31 (melanoma, adherent, top dose 10 µM) | 0.926 | > 10 |
| SK-MG-1 (glioma, adherent, top dose 10 µM) | 0.825 | 6.11 |
| SK-MM-2 (myeloma, suspension, top dose 10 µM) | 0.981 | > 10 |
| SK-N-AS (neuroblastoma, adherent, top dose 10 µM) | 0.864 | > 10 |
| SK-N-DZ (neuroblastoma, adherent, top dose 10 µM) | 0.892 | > 10 |

| Cell Line | AUC | IC50 [µM] |
| --- | --- | --- |
| SK-N-FI (neuroblastoma, adherent, top dose 10 µM) | 0.976 | > 10 |
| SK-N-SH (neuroblastoma, adherent, top dose 10 µM) | 0.843 | 7 |
| SK-OV-3 (ovary, adherent, top dose 10 µM) | 0.946 | > 10 |
| SK-PN-DW (Ewing sarcoma, adherent, top dose 10 µM) | 0.6 | 1.19 |
| SK-UT-1 (soft tissue, adherent, top dose 10 µM) | 0.897 | > 10 |
| SKG-IIIa (cervix, adherent, top dose 10 µM) | 0.803 | 7.06 |
| SKN (uterus, adherent, top dose 10 µM) | 0.836 | 8.71 |
| SKN-3 (head and neck, adherent, top dose 10 µM) | 0.794 | 5.54 |
| SLVL (B-cell lymphoma, suspension, top dose 10 µM) | 0.859 | 9.13 |
| SNB75 (glioma, adherent, top dose 10 µM) | 0.925 | > 10 |
| SNG-M (endometrium, adherent, top dose 10 µM) | 0.951 | > 10 |
| SNU-61 (large intestine, adherent, top dose 6 µM) | 0.956 | > 6 |
| SNU-81 (large intestine, adherent, top dose 10 µM) | 0.948 | > 10 |
| SNU-182 (liver, adherent, top dose 10 µM) | 0.794 | 4.83 |
| SNU-387 (liver, adherent, top dose 10 µM) | 0.903 | > 10 |
| SNU-407 (large intestine, adherent, top dose 10 µM) | 0.902 | > 10 |
| SNU-423 (liver, adherent, top dose 10 µM) | 0.955 | > 10 |
| SNU-449 (liver, adherent, top dose 10 µM) | 0.957 | > 10 |
| SNU-C1 (large intestine, suspension, top dose 10 µM) | 0.98 | > 10 |
| SNU-C2B (large intestine, adherent, top dose 10 µM) | 0.932 | > 10 |
| SNU-C5 (large intestine, adherent, top dose 10 µM) | 0.896 | > 10 |

| Cell Line | AUC | IC50 [µM] |
| --- | --- | --- |
| SR (lymphoid neoplasm, suspension, top dose 10 µM) | 0.821 | 5.04 |
| ST486 (Burkitt lymphoma, suspension, top dose 10 µM) | 0.99 | > 10 |
| STS-0421 (soft tissue, adherent, top dose 10 µM) | 0.892 | > 10 |
| SU8686 (pancreas, adherent, top dose 10 µM) | 0.879 | > 10 |
| SU-DHL-4 (B-cell lymphoma, suspension, top dose 10 µM) | 0.997 | > 10 |
| SU-DHL-5 (B-cell lymphoma, suspension, top dose 10 µM) | 0.857 | 5.15 |
| SU-DHL-6 (B-cell lymphoma, suspension, top dose 10 µM) | 0.965 | > 10 |
| SU-DHL-16 (B-cell lymphoma, suspension, top dose 10 µM) | 0.982 | > 10 |
| SUIT-2 (pancreas, adherent, top dose 10 µM) | 0.825 | 6.37 |
| SUP-B8 (B-cell leukaemia, suspension, top dose 10 µM) | 0.979 | > 10 |
| SUP-B15 (lymphoblastic leukaemia, suspension, top dose 10 µM) | 0.8 | 4.62 |
| SUP-HD1 (Hodgkin lymphoma, suspension, top dose 10 µM) | 0.891 | > 10 |
| SUP-M2 (anaplastic large cell lymphoma, suspension, top dose 10 µM) | 0.784 | 3.22 |
| SUP-T1 (T-cell lymphoblastic leukaemia, suspension, top dose 10 µM) | 0.973 | > 10 |
| SW13 (adrenal gland, adherent, top dose 10 µM) | 0.897 | > 10 |
| SW48 (large intestine, adherent, top dose 10 µM) | 0.883 | > 10 |
| SW620 (large intestine, adherent, top dose 10 µM) | 0.857 | 6.67 |
| SW626 (ovary, adherent, top dose 10 µM) | 0.945 | > 10 |
| SW684 (fibrosarcoma, adherent, top dose 10 µM) | 0.982 | > 10 |
| SW756 (cervix, adherent, top dose 10 µM) | 0.836 | 8.51 |
| SW780 (bladder, adherent, top dose 10 µM) | 0.883 | > 10 |

| Cell Line | AUC | IC50 [µM] |
| --- | --- | --- |
| SW948 (large intestine, adherent, top dose 10 µM) | 0.96 | > 10 |
| SW954 (urogenital system, adherent, top dose 10 µM) | 0.889 | > 10 |
| SW962 (urogenital system, adherent, top dose 10 µM) | 0.933 | > 10 |
| SW982 (soft tissue, adherent, top dose 10 µM) | 0.845 | 7.58 |
| SW1271 (small cell lung carcinoma, adherent, top dose 10 µM) | 0.942 | > 10 |
| SW1417 (large intestine, adherent, top dose 10 µM) | 0.969 | > 10 |
| SW1573 (lung adenocarcinoma, adherent, top dose 10 µM) | 0.932 | > 10 |
| SW1710 (bladder, adherent, top dose 10 µM) | 0.948 | > 10 |
| SW1783 (glioma, adherent, top dose 10 µM) | 0.938 | > 10 |
| SW1990 (pancreas, adherent, top dose 10 µM) | 0.81 | 6.4 |
| Saos-2 (osteosarcoma, adherent, top dose 10 µM) | 0.917 | > 10 |
| SiHa (cervix, adherent, top dose 10 µM) | 0.894 | > 10 |
| T47D (breast, adherent, top dose 10 µM) | 0.954 | > 10 |
| T84 (large intestine, adherent, top dose 10 µM) | 0.98 | > 10 |
| T98G (glioma, adherent, top dose 10 µM) | 0.961 | > 10 |
| T-T (oesophagus, adherent, top dose 10 µM) | 0.938 | > 10 |
| TC-YIK (cervix, suspension, top dose 10 µM) | 0.869 | 7.22 |
| TE-1 (oesophagus, adherent, top dose 10 µM) | 0.912 | > 10 |
| TE-4 (oesophagus, adherent, top dose 10 µM) | 0.936 | > 10 |
| TE-5 (oesophagus, adherent, top dose 10 µM) | 0.908 | > 10 |
